Results from PubChem BioAssay AID1346428 (National Center for Advancing Translational Sciences (NCATS), 2018).
“And” between values parts separate entries of the source, which are not always exact repeats. Equal entries are not always repeated. In all, about 48,000 compounds went through this assay and about 1,200 (2.5%) were called active. Not shown: some 2% with an inconclusive outcome.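 Rule for the calls: active = activation of at least 60% and not above a set upper limit (about 1 call in 100 departs from these limits); inconclusive = activation of 40% to 60%, or above that upper limit; inactive = activation under 40%.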 Some of the results follow.

What follows are compounds tested against Probable G-protein coupled receptor 32 (Homo sapiens) (UniProt O75388) (assay: qHTS for Agonists of Human Resolvin D1 Receptor DRV1). Details: CHO-K1 GPR32 beta-arrestin PathHunter luminescence, 90 min; at 76.9 µM; hits give high values; zero percent set by DMSO-only wells.
UniProt O75388, sequence (O75388 whole entry, looked up): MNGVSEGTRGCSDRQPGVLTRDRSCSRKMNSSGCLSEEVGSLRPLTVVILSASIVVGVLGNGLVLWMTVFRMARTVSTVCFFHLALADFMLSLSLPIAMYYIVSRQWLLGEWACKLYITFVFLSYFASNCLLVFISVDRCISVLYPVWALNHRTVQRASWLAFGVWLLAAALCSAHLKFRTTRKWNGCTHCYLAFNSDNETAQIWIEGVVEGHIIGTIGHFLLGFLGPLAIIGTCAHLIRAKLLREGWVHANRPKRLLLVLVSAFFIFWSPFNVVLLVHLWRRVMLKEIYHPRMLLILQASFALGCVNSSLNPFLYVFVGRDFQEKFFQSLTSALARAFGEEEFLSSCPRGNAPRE
Excerpt: Endogenous resolution of inflammation is known to be transduced through various GPCRs and their natural mediators of lipid nature. Resolvin D1 (RvD1) is one of the active players in resolution of acute inflammation through regulation of anti-inflammatory pathways; it is known to enhance phagocytosis of human macrophages, limits neutrophils infiltration, etc. […] The search for GPR32-activating small molecules with anti-inflammatory effects similar to its natural omega-3 derivative ligand in order to use them as research tools for further studies of inflammation and its resolution was the goal of this screening project. For primary screening assay, we used CHO-K1 GPR32 beta-arrestin cell line (DiscoveRx, #93-0321C2A) and the PathHunter(R) beta-Arrestin Assay (DiscoveRx) which measures recruitment of beta-arrestin to the GPR32 and generates chemiluminescent signal. These engineered cells stably transfected with GPR32 co-express GPR32-fused small 42-amino acid fragment of beta-Gal called ProLinktrade mark, and […] -tagged beta-Arrestin fusion protein. When GPR32 is activated by a ligand, it stimulates binding of beta -Arrestin to ProLink-tagged GPR32, and two parts of beta-Gal complement forming a functional enzyme. Upon substrate (PathHunter(R) Detection reagent) addition, beta-Gal hydrolyzes it and generates a chemiluminescent signal.
The cells were thawed and plated in thawing media containing F-12 HAM (Invitrogen, #11765-054), 10% FBS (Invitrogen, #10082), 1x Glutamine, and 1x Pen/Strep onto the 175-mm flask for 24 hours. Then, thawing media was replaced with Growth media which contains 800microg/mL Geneticin (Invitrogen, #10131) and 300microg/mL Hygromycin B (Invitrogen, #10687) in addition to described above. For the assay, the cells were harvested at ~80% confluent stage with Cell Dissociation buffer (Gibco, #13151), and seeded at 2,500 cells/ 3microL/well in assay media (PathHunter(R) Cell Plating Reagent, DiscoverX, #93-0563R1B) using MultiDrop Combi dispenser (Thermo Scientific, Logan, UT) onto white solid bottom tissue culture-treated 1536-well plates (Greiner # 789173-F) and allowed to attach overnight at 37 degrees C, 95% humidity, 5% CO2, . Next, 23nL/well of compound solutions in DMSO were added with a Pin Tool (Kalypsis, San Diego, CA) to the assay plates. As the basal control (EC0), 23 nL/well of DMSO was used on each plate. The cells were incubated in the presence of compounds or DMSO for 90 minutes at 37 degrees C, 5% CO2. Subsequently, 1.5microL/well of PathHunter(R) Detection Reagent prepared per the manufacturer's instructions was added to the assay plates with BioRAPTR FRDtrade mark dispenser (Beckman Coulter, San Francisco, CA) and incubated for 1 hour at ambient temperature prior to the measurement of the luminescent signal on ViewLux(R) uHTS Microplate Imager (Perkin Elmer, Waltham, MA).
In the case of `Cc1cccc(-c2nc(CCNC(=O)Cc3ccc(F)cc3)cs2)c1`, the activation is reported as inactive: -16%. For `CCC(Nc1ccc(-c2nc(-c3ccco3)no2)cc1[N+](=O)[O-])c1ccccc1` (configuration not stated), the activation was inactive: -5.96%. `COc1ccccc1CNC(=O)Cn1c(=O)oc2cc(S(=O)(=O)N3CCC(C)CC3)ccc21` was tested, and the activation was active: 77.5%. In the case of `COc1ccccc1NC(=O)CSc1ccc(-c2sc(C)nc2C)nn1`, the activation is reported as inactive: -6.95%. For `COc1ccc(C2c3cccn3CCN2S(=O)(=O)c2ccccc2[N+](=O)[O-])cc1OC` (configuration not stated), the activation was inactive: -9.97%. For `CC(C)(C)c1ccc(C(O)CCCN2CCC(C(O)(c3ccccc3)c3ccccc3)CC2)cc1` (configuration not stated), the activation was inactive: 10% and inactive: -15.1%. With `CC(CNC(=O)Cn1ccc2cc(S(=O)(=O)N3CCCCC3)ccc21)c1ccccc1` (configuration not stated) the activation was inactive: 36.3%. For `CCc1ccc2occ(CC(=O)Nc3c(C(=O)Nc4ccc(OC)cc4)oc4ccccc34)c2c1`, the activation was inactive: -3.68%. In the case of `O=C(NCc1ccccc1)c1nnc(Cc2cccc(F)c2)o1`, the activation is reported as inactive: -5.23%. With `CCc1ccc(CNC(=O)CCc2c(C)nn(-c3ccc(N4CCCCC4)nn3)c2C)cc1` the activation was inactive: -20.7%. `O=C(NCC(c1ccc2c(c1)OCO2)N1CCOCC1)c1ccccc1F` (configuration not stated) was tested, and the activation was inactive: -16.9%. With `Cc1cc2nn(-c3ccc(F)cc3)nc2cc1NC(=O)c1ccc(OC(C)C)cc1` the activation was inactive: -12.7%. For `CCOc1ccc(CCNC(=O)C2CCN(C(=O)N3CC(CC)Oc4ccc(C)cc43)CC2)cc1` (configuration not stated), the activation was inactive: -15.4%. With `Cc1ccc2nc(Cl)c3cc(C(=O)N(C)C4CCCCC4)sc3c2c1` the activation was inactive: -0.325%. With `CCn1c(CNC(=O)c2ccc(OC)cc2)nnc1SCC(=O)Nc1cccc(C)c1C` the activation was inactive: 19%. With `CCOC(=O)c1c(C)oc2nc(C)nc(NCC3CCN(Cc4cccc(C)c4)CC3)c12` the activation was inactive: -12.4%. For `COc1cccc(Cn2c(=O)n(-c3cccc(Cl)c3C)c(=O)c3c4c(sc32)CN(C(C)=O)CC4)c1`, the activation was inactive: -12.8%. For `Cc1ccc(NC(=O)CSc2nc3ccc(NC(=O)c4cccs4)cc3s2)c(C)c1`, the activation was inactive: -10.5%. For `CCNC(=O)CC1C(=O)N(c2ccccc2)C(=O)N1Cc1ccc(F)cc1` (configuration not stated), the activation was inactive: -3.17%. For `Cc1cccc(NC(=O)Cn2c(=O)n(Cc3ccc(C(=O)NCc4ccc5c(c4)OCO5)cc3)c(=O)c3ccccc32)c1`, the activation was inactive: 18.1%. `O=C(CCn1c(=O)c2cccn2c2ccc(F)cc21)NCc1ccccc1F` was tested, and the activation was inactive: -20.7%. For `Cc1ccc(NC(=O)CSc2nc(-c3ccc(F)cc3)cc(C(F)(F)F)c2C#N)cc1`, the activation was inactive: -10.4%. With `CCOc1ccc(C(=O)c2cn(CC(=O)Nc3cc(OC)cc(OC)c3)c3ccc(F)cc3c2=O)cc1` the activation was inactive: -0.755%. With `COc1ccc(NC(=O)Cn2c(=O)oc3cc(S(=O)(=O)NC(C)C)ccc32)cc1OC` the activation was inactive: -4.8%. With `Cc1cccc(OCc2nnc(SCC(=O)Nc3ccc(C)cc3C)o2)c1` the activation was inactive: -0.578%. `Cc1ccccc1Cn1c(SCc2ccc(C(=O)NCc3cccs3)cc2)nc2ccncc21` was tested, and the activation was inactive: -11.4%. `COc1ccc(S(=O)(=O)N(Cc2nc(-c3cccc(C)c3)no2)C2CCCCC2)cc1` was tested, and the activation was inactive: -16.1%. `Cc1ccccc1Cn1c(CCCNC(=O)C2CCCCC2)nc2ccccc21` was tested, and the activation was inactive: 32.5%. With `Cc1nnc(N2CCC(C(=O)NC(C)C)CC2)c2nn(-c3ccc(Cl)cc3)c(C)c12` the activation was inactive: 6.67%. With `CCCSCCCNC(=O)C1CCN(C(=O)c2cc3sccc3n2C)CC1` the activation was inactive: -4.88%. In the case of `COc1ccccc1N1CCN(S(=O)(=O)c2ccc3c(c2)oc(=O)n3C)CC1`, the activation is reported as inactive: -8.91%. With `c1ccc2nc(C3=NCCN3)ccc2c1` the activation was inactive: 3.87%. For `CCCCOc1ccc(C2c3c(-c4ccccc4O)n[nH]c3C(=O)N2Cc2ccncc2)cc1OC` (configuration not stated), the activation was inactive: -27.8%. For `O=C(Nc1nc(-c2ccc(Br)cc2)ns1)c1ccc(F)cc1`, the activation was inactive: -2.95%. For `O=S(=O)(c1ccc(-n2cnnn2)cc1)N1CCN(c2ccccc2F)CC1`, the activation was inactive: -2.41%. In the case of `CCN(CCCNC(=O)c1cc2c(=O)[nH]c3ccccc3c2s1)c1ccccc1`, the activation is reported as inactive: -11.8%. With `CCC1CCCCN1S(=O)(=O)c1ccc(NC(=O)c2cc(=O)c3ccccc3o2)cc1` (configuration not stated) the activation was inactive: 8.2%. `CCOc1ccc(-n2c(C)nc3c(cnn3-c3ccc(C)cc3)c2=O)cc1` was tested, and the activation was inactive: -14.8%. `Cc1c2cnn(CC(=O)NCc3ccccc3)c(=O)c2c(C)n1Cc1cccc(Cl)c1` was tested, and the activation was inactive: -8.12%. With `CC(=O)c1cccc(NC(=O)Cn2c(SCC(=O)Nc3ccc(F)cc3)nc3ccccc32)c1` the activation was inactive: -6.31%. For `COCCCNC(=O)CSc1nc(-c2cccc(F)c2)[nH]c1-c1ccccc1`, the activation was inactive: -20.3%. With `O=C(CN1CCN(Cc2ccccc2Cl)C1=O)NCc1ccccc1Cl` the activation was inactive: 7.87%. For `COc1ccc(-c2c(C#N)c(SCC(=O)Nc3ccccc3C)nc(C)c2C(=O)Nc2ccccc2)cc1OC`, the activation was inactive: -19.4%. For `COc1ccc(CCN2C(=O)N(c3ccc(F)cc3)C(=O)C2CC(=O)Nc2ccccc2)cc1` (configuration not stated), the activation was inactive: 26.7%. For `Cn1cc(S(=O)(=O)c2ccccc2)c(=O)c2cc(F)c(N3CCOCC3)cc21`, the activation was inactive: 1.72%. In the case of `N#C/C(=C\c1ccc(Cl)cc1)C(=O)NCC1CCCO1` (configuration not stated), the activation is reported as inactive: 16.4%. In the case of `COc1ccc2cc([S+]([O-])Cc3ncc(C)c(OC)c3C)nc2c1`, the activation is reported as inactive: 6%. `COc1cccc(N2CCN(C(=O)CCS(=O)(=O)c3ccc4c(c3)CC(=O)N4C)CC2)c1` was tested, and the activation was inactive: 44.8%. For `O=c1oc2ccccc2n1CCCOc1ccccc1Cl`, the activation was inactive: 33.6%. `CS(=O)(=O)N1CCc2cc(C(=O)Nc3ccc(Cl)c(C(F)(F)F)c3)ccc21` was tested, and the activation was inactive: 10.7%. For `CCN(CC)C(=O)Cn1c(=O)n(Cc2ccc(C(=O)NCc3ccc(C)cc3)cc2)c(=O)c2ccccc21`, the activation was inactive: -7.29%. For `Cc1ncc(CO)c2c1Oc1nc(-c3ccccc3)nc(SCC(=O)N3CCCCC3)c1C2`, the activation was inactive: -1.06%. `O=C(C1CCC(CNS(=O)(=O)c2ccc(Br)s2)CC1)N1CCN(c2ccccc2Cl)CC1` (configuration not stated) was tested, and the activation was inactive: -15.6%. For `CCOc1cc2sc(N3CCC(C(=O)Nc4ccccc4C(=O)OC)CC3)nc2cc1Br`, the activation was inactive: 1.22%. For `COc1ccc(NC(=O)Cn2c(=O)n(-c3cccc(C)c3)c(=O)c3c2c2cc(C)ccc2n3C)cc1Cl`, the activation was inactive: -5.86%. `Cc1ccc(NC(=O)c2cn3c4c(ccc(Cl)c4c2=O)OC(C)C3)cc1C` (configuration not stated) was tested, and the activation was inactive: 4.01%. `CCOCCCNC(=O)c1cc2c(=O)n(C)c3ccccc3c2n1C` was tested, and the activation was inactive: 5.43%. `O=C(COCc1cc(-c2cccs2)on1)Nc1cc(Cl)ccc1O` was tested, and the activation was inactive: 29.1%. `Cc1ccc(NC(=O)COc2ccc(-c3nn(C)c(=O)c4ccccc34)cc2)cc1` was tested, and the activation was inactive: 25.8%. `COc1ccc(C)cc1NC(=O)CN1C(=O)COc2ccc(S(=O)(=O)N3CCOCC3)cc21` was tested, and the activation was inactive: -13.6%. In the case of `COc1ccc(C(=O)Nc2cc(-c3ccccc3)nn2-c2ccccc2)cc1`, the activation is reported as inactive: -22.6%. In the case of `CCOC(=O)c1sc(NC(=O)C(C)Oc2ccc(OC)cc2)c(C(=O)OCC)c1C` (configuration not stated), the activation is reported as inactive: -28.5%. With `CCOc1ccccc1NC(=O)Cn1c(=O)oc2cc(S(=O)(=O)NCc3ccccc3)ccc21` the activation was inactive: -5.45%. In the case of `CN(C)c1ccc(CNC(=O)C2CCCN(S(=O)(=O)c3ccc4c(ccn4C)c3)C2)cc1` (configuration not stated), the activation is reported as inactive: 20.7%. `Cc1ccc(CNC(=O)C2CCN(S(=O)(=O)Cc3ccccc3)CC2)cc1` was tested, and the activation was inactive: 15.9%. With `Cc1nc(-c2ccc(OCC(C)C)c(C#N)c2)sc1C(=O)O` the activation was inactive: -4.21%. For `COC(=O)C1=C(C)NC(=O)C1(NC(=O)c1ccc(Cl)cc1)C(F)(F)F` (configuration not stated), the activation was inactive: -6.51%. `COc1ccc(C2N=C(N)Nc3nc4ccccc4n32)c(OC)c1OC` (configuration not stated) was tested, and the activation was inactive: -1.17%. `CCN1CCC(N(Cc2cccc(OC)c2)C(=O)Nc2cccc(C)c2C)CC1` was tested, and the activation was inactive: -2.86%. `CC1=Nc2cc(C(=O)NCc3ccc(C)cc3)ccc2Sc2ccc(Cl)cc21` was tested, and the activation was inactive: -22.9%. In the case of `Clc1ccc(N2CCN(Cc3c[nH]c4ncccc34)CC2)cc1`, the activation is reported as inactive: 10.4%. For `Cc1nn(-c2ccccc2)c(OC(=O)c2ccccc2Cl)c1S(=O)(=O)c1ccccc1`, the activation was inactive: -2.46%. With `CCOc1ccc(-n2cc(-c3ccccc3)c3c(NC4CCCCC4)ncnc32)cc1` the activation was inactive: -14.2%. `Cc1ccc(CNC(=O)CCS(=O)(=O)c2ccc3c(c2)CC(C)N3C(=O)C2CC2)cc1` (configuration not stated) was tested, and the activation was inactive: -1.76%. With `CCOc1ccc(NC(=O)CSC2=Nc3ccccc3C3=NC(CCC(=O)NCc4cccs4)C(=O)N23)cc1` (configuration not stated) the activation was inactive: -8.6%. `CCOc1ccc(-c2nnc(SCC(=O)NCc3ccc(C)cc3)nc2-c2ccc(OCC)c(OC)c2)cc1OC` was tested, and the activation was inactive: -7.02%. In the case of `COc1ccc2c(c1)c1c(c(=O)n(-c3cccc(Cl)c3)c(=O)n1CC(=O)NCC1CCCO1)n2C` (configuration not stated), the activation is reported as inactive: -7.62%. `COCCNC(=O)Cn1cnc2sc(C)c(S(=O)(=O)N3CCN(c4ccccc4OC)CC3)c2c1=O` was tested, and the activation was inactive: 1.51%. `CCc1nn2c(=O)cc(COC(=O)c3ccccc3NC(=O)COc3ccc(F)cc3)nc2s1` was tested, and the activation was inactive: -15.9%. `COc1cc(CNCCSc2nnnn2C)ccc1OCc1ccc(F)cc1` was tested, and the activation was inactive: 2.63%. In the case of `CC(CNC(=O)c1nnc(Cc2cccc(F)c2)o1)c1ccccc1` (configuration not stated), the activation is reported as inactive: -3.41%. `CCOC(=O)c1[nH]c(C)c(CCC(=O)Nc2cccc(C(F)(F)F)c2)c1C` was tested, and the activation was inactive: -11.2%.
